Literature values in publication PMC11006913.
This is one part of the list.

How the values were obtained:
[1] = target: PROP1 R112Q (Homo sapiens) (UniProt O75360); details: PBM; conditions not shown; double strand, one strand shown; scale: upbm affinity estimate (log intensity, higher = more binding, comparable within an allelic series)
[2] = target: PROP1 R99Q (Homo sapiens) (UniProt O75360); details: PBM; conditions not shown; double strand, one strand shown; scale: upbm affinity estimate (log intensity, higher = more binding, comparable within an allelic series)

Sequence	binding signal [1]	binding signal [2]
CGGCGGGC [8-mer CGGCGGGC]	10.8	11
CCGCAAGG [8-mer CCGCAAGG]	10.9	11
CCCTTGCG [8-mer CCCTTGCG]	10.8	10.9
GCCTCCAC [8-mer GCCTCCAC]	10.9	10.9
CGCCCGCC [8-mer CGCCCGCC]	10.6	10.9
CTAATTCA [8-mer CTAATTCA]	12.3	11.8
CCCTAGCG [8-mer CCCTAGCG]	10.7	10.9
GGCCAACA [8-mer GGCCAACA]	10.9	10.9
CGACGGCC [8-mer CGACGGCC]	10.9	10.9
CATAACTA [8-mer CATAACTA]	11.8	11.6
CGGCTCCC [8-mer CGGCTCCC]	10.9	11
TAATTTGA [8-mer TAATTTGA]	12.5	11.8
CGCTCTCC [8-mer CGCTCTCC]	10.9	10.8
CCCGAGGG [8-mer CCCGAGGG]	10.7	10.8
CGCAGGAC [8-mer CGCAGGAC]	11	11
AATTGGAC [8-mer AATTGGAC]	12.3	11.8
CCGCCCAC [8-mer CCGCCCAC]	10.9	11
GCCCACGA [8-mer GCCCACGA]	10.9	10.9
ACGGGGGG [8-mer ACGGGGGG]	10.9	11
CTCAGGCC [8-mer CTCAGGCC]	10.8	10.9
CGGCGCGA [8-mer CGGCGCGA]	11	11
CAGGCGCC [8-mer CAGGCGCC]	10.9	11
